The other results are listed elsewhere or left out. At the low end of the ranking, values are background and their order means little.
These sequences were tested on T1, GST-NbGlk1(82-244) (assay: protein-binding microarray). Conditions: NbGlk1 is a Golden2-like transcription factor of Nicotiana benthamiana; high values mean tight binding; most listed sequences are background and not binding sites; double strand, one strand shown.
T1 sequence: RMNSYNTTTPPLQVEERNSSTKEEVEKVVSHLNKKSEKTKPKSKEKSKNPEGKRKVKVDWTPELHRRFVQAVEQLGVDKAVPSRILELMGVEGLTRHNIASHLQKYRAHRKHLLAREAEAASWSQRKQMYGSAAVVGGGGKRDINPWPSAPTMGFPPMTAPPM
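Note: rank-based score ranging −0.5 to +0.5 with E above 0.45 taken as significant binding.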

Sequence	binding signal [E-score]
ACGGTAAA	0.0623
ATGCCAGA	-0.185
CACCTAAG	-0.132
CAGCCGCA	-0.0956
AGCTACAA	-0.0901
ACCAGGCG	-0.0622
AAGGCGTG	-0.099
ACGTGTCG	-0.122
ACGGTCAC	-0.152
AACAATGG	0.07
AGTCGAGA	0.0423
ATGGGCAA	-0.063
ACCCTTCT	-0.202
ATCGTACG	0.122
ATCCGTGG	0.0679
ACCGTTTC	-0.266
CAAAGCTA	-0.0958
AGATTGCG	0.494
ACCTGTGA	-0.12
ACCTAATG	0.0883
ATTTTACA	0.27
AATATTCT	0.313
AGCAGACG	-0.0935
AAAGTCGG	-0.148
AGCATTGG	-0.187

Sequence	binding signal [E-score]
AACCCCCA	-0.321
ACTTTCAG	-0.0802
ATAACGCA	0.2
ACCGCGCG	-0.00863
AGCTAGCT	-0.272
AGTCTATC	-0.141
AAACAACA	-0.00475
AATTTGCA	0.179
ACGCACTG	-0.0776
AGGGCCGA	-0.121
ACGTTCAG	-0.213
AAGCCCCA	-0.328
ACGTGCTG	-0.174
ATTAAGCA	0.0234
AACTGTCG	-0.16
AAATTGGT	0.0668
CACAGAGG	-0.191
ACTAACTC	0.0143
AAAAAGAA	0.165
ATTGCAAT	0.305
ACTGGGAG	-0.223
AAAAGGTA	0.0447
ATTATCCG	0.279
AAAGACTT	-0.0547
CAAAAACC	0.0175

Sequence	binding signal [E-score]
ATTAGAAA	0.131
ATAGAATA	0.193
AGGTGGCG	-0.119
AGGGCTCG	-0.334
ATACCCCG	0.0336
CAGATGGA	-0.0656
AACAGCTG	-0.167
AAAACTGT	-0.0505
AAGCGCAT	-0.0879
ATCGGGTA	0.159
AATCTCAG	0.428
AGATTTCC	0.497
ATCCCTGA	0.0932
CAATGACC	-0.187
ATAAACCC	-0.133
AGAGGGAA	-0.131
ACGCATCC	-0.0246
AAATCGGT	0.325
AAAATGGC	-0.0933
AGAATGCA	0.0239
ATCTTCGA	0.318
ACGGCGGC	-0.24
ACCGGGTA	-0.104
CACCTCCA	-0.163
ATTGGGCA	-0.131

Sequence	binding signal [E-score]
AGGTAGAG	-0.152
AACCTACC	-0.167
AGCTTCTG	-0.169
ATTAACTG	0.0227
ACTTCAAC	-0.0337
CAACTCCA	-0.0884
ACCAATGG	-0.137
AAGATGAG	-0.0363
AGAATAAT	0.206
AGCCTACC	-0.0787
AATTCTAG	0.0563
ACAGTTAA	0.107
CAAAGCAC	-0.0496
AGCGATGG	-0.264
ACTAGCTG	-0.22
AGTCGATC	-0.0175
CACCGTCA	-0.0843
AGCGCGGG	-0.281
AGCACTGG	-0.182
ATCCCTCA	0.207
ATCTTAAC	0.317
ACTATTAC	0.0883
AAACTGTG	0.015
AGTATGGA	-0.0481
CACGCCGC	-0.279

Sequence	binding signal [E-score]
ACTAGATA	0.267
ATGGTTGA	-0.0524
AAATTCAC	0.0254
AGGCGACA	-0.0583
AATCCACC	0.382
AAGATCCA	0.24
ATTATTCC	0.252
AGACATTG	-0.0164
ATGCTTTA	-0.074
ATGGTCAC	-0.179
AGTAAGCA	0.0152
AGGTAACG	-0.116
ACGCTACA	0.0146
AAGTTCAG	-0.0445
AGCTTGCG	-0.0296
AGACCATA	-0.045
ATCGCGTG	0.304
AGCTTCAC	-0.128
CACAGGAG	0.0136
AGGATCCT	0.307
AGCTTCCA	-0.125
ACGTAGTA	-0.00289
ACGAGTAC	0.00865
AGCACGTC	-0.274
CACTCAGA	0.0425

Sequence	binding signal [E-score]
ACGTCCCC	-0.142
ACTTTTAG	-0.148
AATGACAC	-0.207
AATGCCCT	-0.19
ACACGACA	-0.0768
ACGCTGAC	-0.196
ATGAGTTG	-0.0729
ACCTCGCC	-0.219
AGATTCTA	0.451
AACGATGT	-0.0855
AGTAGCAT	-0.0693
ATGGTAAG	-0.0179
AAGACCTC	-0.238
CACAAGGG	-0.244
AAGGGTTG	-0.265
AAGATATC	0.475
ATCGTCGG	0.0875
AGACAGCC	-0.248
ACTACAAT	0.157
AATAAGCC	-0.017
AATTTCAG	0.134
AATACTCG	0.0319
CACTGGAC	-0.0809
ATCTCCCC	0.301
AATTCAAG	0.0601

Sequence	binding signal [E-score]
ACGACATG	-0.0832
AGCCACTC	-0.298
AGGACAAC	-0.147
AAGGGACC	-0.263
AATTACCG	0.185
AGGTCACG	-0.288
AAATCGGG	0.354
ATGTCCCA	-0.126
AACGTTTC	0.00568
AAGAGGGG	-0.141
CACACTTA	-0.0798
AAACTAGG	0.0238
AGTTCCTC	-0.213
CACATCGA	0.0129
ACAACGGC	-0.0792
AATTAACA	0.0796
ACGTTTCA	-0.0261
AGAGGCCA	-0.268
AGTACAGG	-0.0766
AGTTATGG	-0.0727
AAACGAAA	0.165
AACGGTCA	-0.152
CAGACTTA	-0.143
ACCGTGTC	-0.13
AAGTTTAG	-0.0409

Sequence	binding signal [E-score]
ACAAGGCG	-0.142
AACGGTTG	0.0221
CAAGTTGC	-0.176
ATACATTC	0.14
AATACGGA	0.178
ACGCGGCA	-0.0595
ATCTGATA	0.345
AGCACTAT	0.00798
AGCTACCG	-0.213
CAGAACAA	-0.0731
ACATTCCT	0.0632
ACCCATCC	-0.193
AACGTGCC	-0.235
AGCAACGA	-0.116
ACATTGCC	-0.054
ACGAAGCC	-0.138
AATCAGGA	0.394
CAAAAATG	0.0155
CAGAACGG	0.0192
ACAGTTCT	-0.124
ATACGCTC	0.161
AGGCGTAG	-0.325
AGAGCTCA	-0.217
AAGTCATT	-0.0303
AGGGACGG	-0.169

Sequence	binding signal [E-score]
ACGGTCGG	-0.159
ATTCGCTC	0.231
ATGAATCG	0.103
ACGGATTG	0.277
ATAAAGTA	0.115
ATTATAAC	0.0834
AGATACCA	0.204
ACGCGCAC	-0.0139
AGTCTTTA	0.036
CAACTTAC	-0.00594
AAACTATC	0.0464
ATCAAGCC	-0.0609
AGCGTCTA	-0.0432
ACGTACCC	-0.0848
CAACTGAC	-0.103
AAAATGGA	-0.0966
AGTTAAAC	-0.0875
AGAATAGC	-0.148
CACTTAGG	-0.108
